Test results: PubChem BioAssay AID1963576 (National Center for Advancing Translational Sciences (NCATS), 2024)
Among all 46,000 compounds or so, about 60 (0.1%) were called active. About 3% were inconclusive and are not listed. Calls come from the whole dose curve; as a rule, active = well fitted inhibition curve with a large enough effect; inconclusive = small, poorly fitted or top-dose-only effect; inactive = no such curve, though single readings can be large or run the other way. The list shows a part of the results.

Test: Primary qHTS assay for Inhibitors of ovarian cancer metastasis using an organotypic tumor microenvironment (TME) model.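 For activity change, negative = inhibition: plate controls were DMSO wells for no effect and tomatine positive control wells for full effect.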 Note: nearly all actives have a fitted effect of over 65% in size.
Settings: SKOV3ip1-GFP adhesion/invasion on 3D omental model, fluorescence; series mostly up to 45.8 µM; activity change, negative = inhibition: at the top concentration
Outline: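 Primary human omental fibroblast/mesothelial 3D culture pre-formed 48 h. SKOV3ip1-GFP cells added with compounds (0.36-46 umol/L), incubated 2 h RT/16 h 37 C, fixed; GFP cells quantified at 488/509 nm.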

Compound	activity change, negative = inhibition	outcome
COC(=O)c1cc2occc2n1Cc1cccc(C)c1	inactive: -0.731%	
COc1ccc(C(=O)N2CCC(c3nc(-c4ccc(S(=O)(=O)N5CCCC5)cc4)no3)CC2)cc1	inactive: 0.0572%	
COc1ccc(-n2c(=O)c3ccccc3n(Cc3ccccc3C)c2=O)c(OC)c1	inactive: -16.6%	
CC(=O)Nc1nonc1-c1nnc(SCC(=O)Nc2ccc(C)c(Cl)c2)n1-c1ccccc1	inactive: -45.4%	
Cc1ccc(-n2nc(C(=O)Nc3ccc(C)c(F)c3)c3c4ccccc4n(C)c3c2=O)cc1	inactive: 10.4%	
NC(=O)Cn1c(=O)n(CCCCCC(=O)NCc2ccccc2)c(=O)c2sccc21	inactive: 4.3%	
Cc1ccc(-n2nc(CO)c(C(=O)NCCCc3ccccc3)n2)cc1	inactive: -1.48%	
CCc1ccccc1Nc1nc2cc(Cl)c(Cl)cc2nc1-n1nc(C)cc1C	inactive: -3.68%	
CCOc1ccc(C(=O)c2cnc3ccc(Cl)cc3c2S(=O)(=O)c2ccc(C)cc2)cc1	inactive: 7.2%	
COc1cccc(Cn2c(NCc3ccc(C)cc3)nc3c2c(=O)n(C)c(=O)n3C)c1	inactive: 2.25%	
CCOc1ccc(CNC(=O)C2CCCN(S(=O)(=O)N(C)c3ccc(F)cc3)C2)cc1OC (stereo unspecified)	inactive: 15.2%	
Cc1ccc(-n2ncc3c(Nc4ccccc4C)ncnc32)cc1	inactive: 12.5%	
CC(=O)Nc1ccc(NS(=O)(=O)c2c(C)nc3sccn3c2=O)cc1	inactive: -1.06%	
CCOC(=O)c1cnc2c(ccc3ccccc32)c1Nc1ccc(Cl)cc1		inactive
O=C(NC1CC1)c1cccc(-c2ccc3c(NC(=O)C4CC4)n[nH]c3c2)c1	inactive: -25.3%	
COc1ccc(-c2cn3nc(N4CCCC(C(=O)NCc5ccccc5OC)C4)sc3n2)cc1 (stereo unspecified)		inactive
Cc1nn(-c2ccc3nnc(C)n3n2)c(C)c1CCC(=O)Nc1ccc(OC(F)(F)F)cc1	inactive: 1.53%	
CC(=O)c1ccc(NC(=O)c2ccc(-c3nc(COc4ccc(C)cc4)c(C)o3)cc2)cc1	inactive: -0.627%	
CCC(=O)N1CCc2cc(S(=O)(=O)NC(CC(C)C)C(=O)NCc3ccc(F)cc3)ccc21 (stereo unspecified)	inactive: -4.63%	
COC(=O)c1cc(-c2ccc(OC)c(OC)c2)c2c(=O)[nH]c(=O)n(C)c2n1	inactive: 0.159%	
O=C(CCn1c(=O)c2sccc2n(Cc2cccc(F)c2)c1=O)NCc1ccc2c(c1)OCO2		inactive
Cc1ccc(S(=O)(=O)c2nc(-c3ccco3)oc2SCC(=O)Nc2ccc(F)cc2)cc1	inactive: 4.52%	
CC1Cc2cc(S(=O)(=O)CCC(=O)Nc3ccc(F)c(Cl)c3)ccc2N1C(=O)C1CC1 (stereo unspecified)	inactive: -3.29%	
Cc1cccc(C)c1NC(=O)Cn1c(=O)n(Cc2ccco2)c(=O)c2ccc(C(=O)NC3CCCC3)cc21	inactive: -6.93%	

Compound	activity change, negative = inhibition	outcome
Cc1ccc(NC(=O)Cn2c(=O)n(Cc3nc(C)no3)c(=O)c3cc4c(cc32)OCO4)c(Cl)c1	inactive: -10%	
COc1ccc(S(=O)(=O)NCC(c2ccco2)N2CCN(c3ccc(F)cc3)CC2)cc1C (stereo unspecified)	inactive: -1.81%	
COc1ccc(NC(=O)CCc2c(C)nc3nc(CNC(=O)OC(C)(C)C)nn3c2C)cc1OC	inactive: 1.47%	
COc1ccc(CC2C(=O)Nc3ccc(Br)cc32)cc1OC (stereo unspecified)	inactive: -3.35%	
O=C(Nc1ccc(F)c(Cl)c1)C1CCCN(c2cnccn2)C1 (stereo unspecified)	inactive: -6.57%	
CC1CCN(S(=O)(=O)c2ccc3c(ccn3CCC(=O)NCc3ccc(N(C)C)cc3)c2)CC1	inactive: -0.713%	
COc1cccc2cc(C(=O)NCCc3c(C)[nH]c4ccc(F)cc34)c(=O)oc12		inactive
CCc1ccc(NC(=O)CC2C(=O)N(c3cccc(C)c3)C(=O)N2Cc2ccco2)cc1 (stereo unspecified)		inactive
CCc1ccccc1NC(=O)N1CCN(C(=O)c2nsc3ccccc23)CC1	inactive: -29.2%	
CC(=O)N1CCCC1c1nc2ccccc2n1Cc1ccccc1C (stereo unspecified)		inactive
COc1cc(NC(=O)CC(C)n2nc(C)cc2C)cc(OC)c1 (stereo unspecified)	inactive: 2.57%	
CC1CCN(S(=O)(=O)c2nnc(NC(=O)c3cccc(Br)c3)s2)CC1	inactive: -9.08%	
CCS(=O)(=O)N1CCc2cc(C(=O)NCCc3ccc(OC)cc3)ccc21	inactive: -6.07%	
O=C(NCCc1ccccc1)C(=O)NCC(c1ccc2c(c1)OCO2)N1CCOCC1 (stereo unspecified)	inactive: -1.48%	
CCNc1nc(NC(C)(C)C)nc(Oc2ccc(=O)n(C)n2)n1	inactive: 5.33%	
COc1ccc(Cl)cc1NC(=O)CSc1cn(CC(=O)N2CCCCCC2)c2ccccc12		inactive
COc1cc(NC(=O)C(CCSC)NS(=O)(=O)c2ccc3c(c2)oc(=O)n3C)cc(OC)c1 (stereo unspecified)	inactive: 3.36%	
Cc1ccc(NC(=O)Cn2c(=O)n(CCC(=O)NCc3ccccc3Cl)c(=O)c3ccccc32)cc1		inactive
Cc1ccc(-c2nnc3ccccc3c2C(=O)Nc2ccccc2F)cc1	inactive: -17.9%	
CCOc1ccccc1C(=O)N(Cc1ccccc1F)C1CCS(=O)(=O)C1 (stereo unspecified)	inactive: -14.4%	
O=C(CCC1N=C2c3ccccc3N=C(SCc3ccccc3F)N2C1=O)NCc1ccc(F)cc1 (stereo unspecified)	inactive: 4.62%	
CC(C)(C)c1ccc(C(=O)N2CCC(c3nc4ccccc4o3)CC2)cc1		inactive
COc1ccc(NC(=O)c2c(NCc3cccc(OC)c3)sc3c2CCCC3)cc1	inactive: -6.92%	
COc1ccccc1NC(=O)CSc1nc(-c2ccccc2F)nc2cc(=O)[nH]n12	inactive: 2.23%	

Compound	activity change, negative = inhibition	outcome
Cc1ccc(-n2c(=O)c3c(c4cc(C)ccc4n3C)n(CC(=O)NCc3ccccc3)c2=O)cc1		inactive
CCN1CCc2nc3sc(C(=O)c4ccc(F)cc4)c(N)c3cc2C1		inactive
COc1ccc(CCNc2nc3c(-c4cccc(C)c4)nnn3c3ccccc23)cc1OC	inactive: -7.51%	
CC1=C(c2ccc(Cl)cc2)S(=O)(=O)N=C1N1CCC(C(=O)NCc2ccccc2F)CC1	inactive: 0.397%	
COc1ccc(-c2onc(C)c2C)cc1S(=O)(=O)NCC1CCN(Cc2cccc(F)c2)CC1	inactive: 2.39%	
Cc1ccccc1NC(=O)c1c(C)oc2ccc(O)c(CN3CCN(C)CC3)c12		inactive
CC(C)(C)c1ccc(-c2nc(SCC(=O)Nc3ccccc3F)n3[nH]c(=O)cc3n2)cc1	inactive: -0.366%	
CC(CCc1ccc(O)cc1)NCCc1ccc(O)c(O)c1 (stereo unspecified)	inactive: -14.9%	
CCc1ccc2oc(C(=O)Nc3ccccc3C(=O)OC)cc(=O)c2c1	inactive: 4.81%	
Clc1cccc(-n2ncc3c(NCCCn4ccnc4)ncnc32)c1	inactive: 3.76%	
Cc1cccc(N2CCN(C(=O)Cn3nc(Cc4cccnc4)c4ccccc4c3=O)CC2)c1C	inactive: -8.35%	
COc1ccc(NC(=O)Cn2c(=O)ccc3cc(S(=O)(=O)N4CCCC4)ccc32)cc1Cl		inactive
COc1ccc(CNC(=O)Cn2c(=O)cc(-c3ccccc3)c3c(C)nn(C)c32)cc1		inactive
CCOc1ccccc1CNC(=O)c1cccn1-c1nnc(N2CCCC2)s1		inactive
COc1ccc(S(=O)(=O)N(CC(=O)Nc2cccnc2)c2ccc(Cl)cc2)cc1	inactive: -20.8%	
COc1ccc(CNC(=O)COCc2cc(-c3cccs3)on2)cc1	inactive: -1.62%	
O=C(O)Cn1ccc2cc(S(=O)(=O)N3CCCCCC3)ccc21	inactive: 4.61%	
CCCCn1c(NCc2ccc(N(C)C)cc2)nc2ccccc21	inactive: 4.59%	
O=C(CCOc1ccccc1)N(Cc1cccnc1)c1nc2c(F)cccc2s1		inactive
Cc1ccccc1CSc1cn(CC(=O)N2CCCCCC2)c2ccccc12	inactive: -4.96%	
Cc1cccn2c(=O)c(C(=O)NCCc3ccc(S(N)(=O)=O)cc3)c(O)nc12	inactive: 16.6%	
CCCNS(=O)(=O)Nc1ncnc(OCCOc2ncc(Br)cn2)c1-c1ccc(Br)cc1	inactive: -13.2%	
O=C(Nc1ccc(Cl)c(C(F)(F)F)c1)C1CCN(S(=O)(=O)c2cccc3nonc23)CC1		inactive
CC1C(=O)N2CCCc3cc(S(=O)(=O)N4CCC(C(N)=O)CC4)cc1c32 (stereo unspecified)	inactive: -3.12%	

Compound	activity change, negative = inhibition	outcome
COc1ccccc1NC(=O)c1oc2ccccc2c1NC(=O)C1CCCCC1	inactive: -0.917%	
CCCSCCCNC(=O)c1ccc2c(c1)sc1nc(-c3ccc(OCC)cc3)cn12	inactive: 2.46%	
Cc1ccc2cc(CN(C(=O)c3cccc(Cl)c3)c3ccccc3)c(=O)[nH]c2c1	inactive: 0.396%	
Cc1ccccc1CSc1nc2ccsc2c(=O)n1CCC(C)C	inactive: 4.23%	
CN1c2ccc(Cl)cc2-c2nc(SCC(=O)NCc3ccccc3)ncc2S1(=O)=O		inactive
O=C(NCc1ccccc1F)C1CCN(c2nn3cc(-c4ccc(F)cc4)nc3s2)CC1		inactive
COc1cccc(CNC(=O)c2cnc(N3CCCCC3)c3ccccc23)c1	inactive: -12.7%	
COc1ccccc1Nc1nn2c(=O)c3ccc(C(=O)NCCC4=CCCCC4)cc3nc2s1	inactive: 12.8%	
O=C(NC1CC(=O)N(c2cccc(F)c2)C1)c1cc2ccccc2o1 (stereo unspecified)		inactive
COc1ccc(C)cc1NC(=O)C(Cc1ccccc1)NS(=O)(=O)c1cccs1 (stereo unspecified)	inactive: 2.27%	
Cc1cc(C)cc(-n2c(SCC(N)=O)nc3c([nH]c4ccccc43)c2=O)c1	inactive: -9.56%	
O=C(Nc1ccccc1C(F)(F)F)N1CCC(CN2CCc3ccccc3C2)CC1	inactive: 4.45%	
Cc1ccc(Cn2c(C(=O)O)c(CNC3CCCC3)c3ccc(C)cc32)cc1		inactive
CCC(=O)N1CCc2cc(Br)cc(S(=O)(=O)CCC(=O)NCc3cccc(OC)c3)c21	inactive: 3.88%	
Cc1ccc2nc(-c3cccc(NC(=O)c4cccc5ccccc45)c3)oc2c1	inactive: -8.01%	
COc1ccc(Nc2ncnc3c2cnn3-c2ccc(C)cc2)cc1Cl	inactive: -12.8%	
COCCNc1oc(/C=C/c2ccc(F)cc2)nc1C#N	inactive: 2.17%	
CCOC(=O)c1ccc(CN(Cc2ccccc2C)S(=O)(=O)c2ccc(F)c(C)c2)cc1	inactive: -4.16%	
Cc1cccc(Cn2cc(S(=O)(=O)c3cccc(C)c3)c(=O)c3cc(F)c(N4CCOCC4)cc32)c1		inactive
Cc1ccc(CNC(=O)CCCn2c(=O)[nH]c3ccc(Br)cc3c2=O)cc1		inactive
Cc1ccc(-n2c(=O)c3c(cnn3C)n(CC(=O)Nc3ccccc3C)c2=O)cc1		inactive
CCOc1ccc(-n2c(SCC(=O)NC3CCCCC3)nc3c([nH]c4ccccc43)c2=O)cc1	inactive: -5.58%	
O=C(Oc1ccc(Cl)cc1)c1cc(-c2ccc3c(c2)OCCO3)on1		inactive
O=C(Cn1c(=O)oc2cc(S(=O)(=O)N3CCCCC3)ccc21)NCc1ccc(Cl)cc1	inactive: 1.49%	
